Data from the supplement of paper PMC4604168 (melanoma cell lines).
This is one part of the list. Many values rest on one well or one pass, so single values are uncertain.

System: COLO800
Assay: cell count relative to DMSO control; melanoma cells; higher = more viable cells
Conditions: library dose: low library concentration; 72 h
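Further: cell number obtained by counting DAPI-stained nuclei in high-throughput microscope images with image analysis software, screen run in 1,536-well plates.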

Question: Which cell count does the source give for `O=C(O)c1ccc(-c2c[nH]c3ncc(-c4ccccc4)cc23)cc1C1CCCC1` + Oc1cc(-c2nc(-c3ccccc3)[nH]c2-c2ccncc2)ccc1Cl [L779450] (first compound 0.16 µM, partner dose 0.2 µM) here?
Answer: Its cell count is 81.5%.

Question: Which cell count does the source give for `COc1cc(Nc2ncc(F)c(Nc3ccc4c(n3)NC(=O)C(C)(C)O4)n2)cc(OC)c1OC` [Tamatinib] + COc1ccc2c(c1)CCC1C2CCC2(C)C(NCCCCCCN3C(=O)C=CC3=O)CCC12 [U73122] (first compound 0.4 µM, partner dose 0.4 µM) here?
Answer: Its cell count is 87.8%.

Question: For `C[C@@H]1CCN(C(=O)CC#N)C[C@@H]1N(C)c1ncnc2[nH]ccc12` + O=S(=O)(c1ccccc1)N(CC(F)(F)F)c1ccc(C(O)(C(F)(F)F)C(F)(F)F)cc1 [T0901317] (first compound 1 µM, partner dose 1.4 µM), which cell count is on record?
Answer: Its cell count is 82.5%.

Question: Which cell count does the source give for `O=c1[nH]nc(Sc2ncc([N+](=O)[O-])s2)n1-c1ccc2c(c1)OCCO2` + COc1ccc(C2=N[C@@H](c3ccc(Cl)cc3)[C@@H](c3ccc(Cl)cc3)N2C(=O)N2CCNC(=O)C2)c(OC(C)C)c1 [Nutlin-3] (first compound 0.2 µM, partner dose 0.1 µM) here?
Answer: Its cell count is 97.3%.

Question: With `CC1(C)NC(=O)N(c2ccc([N+](=O)[O-])c(C(F)(F)F)c2)C1=O` [nilutamide] + COc1cc(N2CCC(N3CCN(C)CC3)CC2)ccc1Nc1ncc(Cl)c(Nc2ccccc2S(=O)(=O)C(C)C)n1 [NVP-TAE684] (first compound 1 µM, partner dose 0.08 µM) as the molecule, how does the cell count read?
Answer: The cell count was 72.4%.

System: COLO829
Assay: as above
Conditions: library dose: low library concentration; 72 h

Question: How did the cell count turn out when `COc1cc(Nc2ncc(F)c(Nc3ccc4c(n3)NC(=O)C(C)(C)O4)n2)cc(OC)c1OC` [Tamatinib] + COC(=O)c1sccc1S(=O)(=O)Nc1ccc(Nc2ccccc2)cc1OC [GSK0660] (first compound 0.4 µM, partner dose 1 µM) was run?
Answer: The cell count was 106%.

Question: For `O=C(O)c1ccc(-c2c[nH]c3ncc(-c4ccccc4)cc23)cc1C1CCCC1` + O=C(O)C(=O)Nc1sc2c(c1C(=O)O)CCNC2 [TCS401] (first compound 0.16 µM, partner dose 1.66667 µM), which cell count is on record?
Answer: Its cell count is 87.9%.

Question: `C[C@@H]1CCN(C(=O)CC#N)C[C@@H]1N(C)c1ncnc2[nH]ccc12` + N#Cc1c(O)c2c(-c3ccc(-c4ccccc4O)cc3)csc2[nH]c1=O [A769662] (first compound 1 µM, partner dose 2 µM) was tested. Which cell count did it give?
Answer: Its cell count is 77.6%.

Question: Which cell count does the source give for `C[C@@H]1CCN(C(=O)CC#N)C[C@@H]1N(C)c1ncnc2[nH]ccc12` + CC(C)CCN1c2nc(Nc3cc(F)c(O)c(F)c3)ncc2N(C)C(=O)C1C [BID1870] (first compound 1 µM, partner dose 0.2 µM) here?
Answer: The cell count was 118%.

Question: With `C[C@@H]1CCN(C(=O)CC#N)C[C@@H]1N(C)c1ncnc2[nH]ccc12` + O=c1cc(-c2cccc3c2Sc2ccccc2S3)oc(N2CCOCC2)c1 [KU55933] (first compound 1 µM, partner dose 1 µM) as the molecule, how does the cell count read?
Answer: Its cell count is 108%.

Question: Which cell count does the source give for `O=C(O)c1ccc(-c2c[nH]c3ncc(-c4ccccc4)cc23)cc1C1CCCC1` + O=C1NC(=O)/C(=C/c2ccc(-c3ccc(F)cc3O)o2)S1 [AS252424] (first compound 0.16 µM, partner dose 1 µM) here?
Answer: Its cell count is 123%.

Question: `O=C(O)c1ccc(-c2c[nH]c3ncc(-c4ccccc4)cc23)cc1C1CCCC1` + CCN(CC)CCCCNc1ncc2cc(-c3cc(OC)cc(OC)c3)c(NC(=O)NC(C)(C)C)nc2n1 [PD173074] (first compound 0.16 µM, partner dose 0.1 µM) was tested. Which cell count did it give?
Answer: Its cell count is 105%.

Question: `O=c1[nH]nc(Sc2ncc([N+](=O)[O-])s2)n1-c1ccc2c(c1)OCCO2` + CN1CCN(c2ccc3nc(-c4c(N)c5c(F)cccc5[nH]c4=O)[nH]c3c2)CC1 [Dovitinib] (first compound 0.2 µM, partner dose 0.1 µM) was tested. Which cell count did it give?
Answer: Its cell count is 78.9%.

Question: With `COc1cc(Nc2ncc(F)c(Nc3ccc4c(n3)NC(=O)C(C)(C)O4)n2)cc(OC)c1OC` [Tamatinib] + COc1ccc(-c2ccc3c(N4CCOCC4)nc(N4C[C@@H](C)O[C@@H](C)C4)nc3n2)cc1CO [KU0063794] (first compound 0.4 µM, partner dose 0.02 µM) as the molecule, how does the cell count read?
Answer: The cell count was 84.4%.

Question: How did the cell count turn out when `O=c1[nH]nc(Sc2ncc([N+](=O)[O-])s2)n1-c1ccc2c(c1)OCCO2` + CCCS(=O)(=O)Nc1ccc(F)c(C(=O)c2c[nH]c3ncc(Cl)cc23)c1F [PLX4720] (first compound 0.2 µM, partner dose 0.08 µM) was run?
Answer: The cell count was 113%.
